{"source": "PubChem BioAssay AID1259400", "about": "(National Center for Advancing Translational Sciences (NCATS), 2018)", "note": "The campaign covered roughly 350,000 compounds. About 2,100 (0.6%) were called active. Inconclusive results, whose numbers are uncertain, are shown with a selection of clear calls.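 How the source made its calls: active means activity change of -60% or lower, but not beyond a set lower limit; inconclusive means change between -60% and -40%, or beyond the set limit; inactive means change above -40%.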 On the % scale 0 is the no-effect control and ±100 the full control effect.", "data": [{"biological_target": "Relaxin receptor 1 (Homo sapiens) (UniProt Q9HBX9)", "sequence (Q9HBX9 whole entry, looked up)": "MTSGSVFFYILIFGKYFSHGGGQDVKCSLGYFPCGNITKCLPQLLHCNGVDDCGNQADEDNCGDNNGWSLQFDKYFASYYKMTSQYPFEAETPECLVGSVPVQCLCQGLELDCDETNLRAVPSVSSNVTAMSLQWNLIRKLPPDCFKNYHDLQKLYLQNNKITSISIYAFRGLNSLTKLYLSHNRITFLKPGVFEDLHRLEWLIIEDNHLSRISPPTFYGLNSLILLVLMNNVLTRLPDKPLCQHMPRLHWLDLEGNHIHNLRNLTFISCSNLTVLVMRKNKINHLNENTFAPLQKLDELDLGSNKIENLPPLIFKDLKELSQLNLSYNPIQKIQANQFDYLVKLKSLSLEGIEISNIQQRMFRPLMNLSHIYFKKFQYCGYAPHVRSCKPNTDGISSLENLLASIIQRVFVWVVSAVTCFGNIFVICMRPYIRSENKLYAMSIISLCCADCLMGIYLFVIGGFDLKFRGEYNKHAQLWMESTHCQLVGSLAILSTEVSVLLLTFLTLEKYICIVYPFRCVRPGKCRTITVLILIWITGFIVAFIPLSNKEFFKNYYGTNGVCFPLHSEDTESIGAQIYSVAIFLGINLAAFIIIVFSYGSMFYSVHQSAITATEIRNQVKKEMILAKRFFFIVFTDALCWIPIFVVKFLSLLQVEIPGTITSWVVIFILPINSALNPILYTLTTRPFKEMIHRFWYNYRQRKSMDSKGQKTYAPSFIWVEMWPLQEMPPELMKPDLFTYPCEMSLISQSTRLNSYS", "experiment": "qHTS Assay for Antagonists of the Relaxin Receptor RXFP1", "details": "HEK293-RXFP1, relaxin-stimulated cAMP HTRF, 30 min; at 57.5 µM; stronger effect = lower value", "values": [{"compound": "O=C(CSc1nc2scc(-c3ccccc3)c2c(=O)[nH]1)Nc1ccccc1", "activity change, negative = inhibition": "inconclusive: -45.2%"}, {"compound": "CC(=O)N(C1=C(Cl)C(=O)c2ccccc2C1=O)C1CCCCC1", "activity change, negative = inhibition": "active: -98.7%"}, {"compound": "c1ccc2c(c1)oc1c(NCCCn3ccnc3)ncnc12", "activity change, negative = inhibition": "inactive: 4.9%"}, {"compound": "COc1cc(/C=N/NC(=O)c2ccccn2)ccc1OC(=O)c1cccs1", "activity change, negative = inhibition": "inconclusive: -55%"}, {"compound": "C1=C(c2ccccc2)Nc2nnnn2C1c1cccs1", "note": "(stereo not drawn)", "activity change, negative = inhibition": "inconclusive: -40.8%"}, {"compound": "CC(C)c1ccc(NC(=O)[C@@H](NC(=O)N2CC(=O)Nc3ccccc32)C(C)C)cc1", "activity change, negative = inhibition": "inconclusive: -42.4%"}, {"compound": "Cc1ccc(C(=O)N/C(=C\\c2ccc(Cl)cc2)C(=O)NCCN2CCOCC2)cc1", "activity change, negative = inhibition": "inactive: -9.64%"}, {"compound": "COc1cccc(NC(=O)c2oc3ccc(S(=O)(=O)N4CCOCC4)cc3c2C)c1", "activity change, negative = inhibition": "inconclusive: -58.3%"}, {"compound": "CCc1ccccc1N1C(=O)CC(N2CCc3ccccc32)C1=O", "note": "(stereo not drawn)", "activity change, negative = inhibition": "inconclusive: -50.7%"}, {"compound": "O=[N+]([O-])c1ccc(C2=NN(CCO)C(=Nc3ccc(OC(F)(F)F)cc3)SC2)cc1", "activity change, negative = inhibition": "inconclusive: -54.6%"}, {"compound": "O=C(O)CCNc1cc(N2CCN(C(=O)c3ccco3)CC2)c2noc3c2c1C(=O)c1ccccc1-3", "activity change, negative = inhibition": "active: -74.7%"}, {"compound": "O=C(NCc1ccc2c(c1)CCN2C(=O)c1ccncc1)c1ccccc1Br", "activity change, negative = inhibition": "inconclusive: -46.7%"}, {"compound": "COc1ccccc1Oc1ccc2c(c1)C(=O)N(c1ccc(O)cc1)C2=O", "activity change, negative = inhibition": "inconclusive: -41.4%"}, {"compound": "CC(C)C1COC(c2cccn2Cc2ccccc2Cl)=N1", "note": "(stereo not drawn)", "activity change, negative = inhibition": "inconclusive: -55.9%"}, {"compound": "Cc1ccccc1C(=O)N1CCc2c([nH]c3ccccc23)C1C(F)(F)F", "note": "(stereo not drawn)", "activity change, negative = inhibition": "inconclusive: -59.4%"}, {"compound": "COc1ccccc1OCc1cc(C(=O)N2CC3C[C@@H]4CC2C[C@H](C3)C4)no1", "activity change, negative = inhibition": "inconclusive: -52%"}, {"compound": "COc1ccc(C(=O)Nc2nc3ccccc3s2)c(OC)c1", "activity change, negative = inhibition": "inactive: -13.2%"}, {"compound": "CCCC1C2CN(C(C)C)CC=C2C(C#N)=C(N)C1(C#N)C#N", "note": "(stereo not drawn)", "activity change, negative = inhibition": "inactive: -0.328%"}, {"compound": "CCCc1ccc2oc(C(=O)N(C)Cc3ccn[nH]3)c(C)c2c1", "activity change, negative = inhibition": "inconclusive: -49%"}, {"compound": "CC1(C)CC(=O)C(C(C2=C(O)CC(C)(C)CC2=O)c2ccc(O)c([N+](=O)[O-])c2)=C(O)C1", "activity change, negative = inhibition": "inconclusive: -43.2%"}, {"compound": "O=C(CNC(=S)NC(=O)c1ccccc1Br)c1ccccc1", "activity change, negative = inhibition": "inconclusive: -48.6%"}, {"compound": "Cc1cc(C)c(OCC(=O)NCC2COc3ccccc3O2)c(C)c1", "note": "(stereo not drawn)", "activity change, negative = inhibition": "inconclusive: -56.3%"}, {"compound": "CC1(C)O[C@@H]2C[C@H]3[C@@H]4CCC5=CC(=O)C=C[C@]5(C)[C@@H]4[C@@H](O)C[C@]3(C)[C@]2(C(=O)CO)O1", "activity change, negative = inhibition": "inactive: -3.74%"}, {"compound": "O=C(NCc1ccco1)c1c[nH]c2ccc(S(=O)(=O)Nc3ccc(F)cc3F)cc2c1=O", "activity change, negative = inhibition": "inactive: 3.27%"}, {"compound": "N#Cc1ccccc1S(=O)(=O)N1CCCC(c2nc3c(nnn3Cc3cccc(Cl)c3)c(=O)[nH]2)C1", "note": "(stereo not drawn)", "activity change, negative = inhibition": "inconclusive: -56.8%"}, {"compound": "COc1ccc(CCN(C)Cc2ccc(OCc3ccccc3)c(OC)c2)cc1OC", "activity change, negative = inhibition": "inactive: -11.5%"}, {"compound": "COc1ccc(CN(C(=O)CSc2nnc(-c3c[nH]c4ccccc34)o2)c2ccc(F)cc2)cc1OC", "activity change, negative = inhibition": "inactive: -15.9%"}, {"compound": "CN(C)C=NC(=O)c1cc(C(=O)c2ccc(Cl)cc2)c[nH]1", "activity change, negative = inhibition": "inconclusive: -57.2%"}, {"compound": "CCS(=O)(=O)c1nc2ccccc2n1CC(=O)Nc1ccccc1C(=O)OC", "activity change, negative = inhibition": "inactive: 0.952%"}, {"compound": "O=C(Cc1ccccc1)NCCCNC(=O)Cc1ccccc1", "activity change, negative = inhibition": "inactive: 0.0548%"}, {"compound": "COc1ccc(NC(=O)N2CCN(c3cccc(C(F)(F)F)c3)CC2)cc1", "activity change, negative = inhibition": "inconclusive: -58.6%"}, {"compound": "COc1ccc(-c2n[nH]c(C)c2-c2ccc(Cl)cc2)c(O)c1OC", "activity change, negative = inhibition": "inconclusive: -54.6%"}, {"compound": "CC(C)c1ccc2[nH]c3c(c2c1)CCCC3=O", "activity change, negative = inhibition": "inconclusive: -44.5%"}, {"compound": "CN(C(=O)c1oc(=O)c2ccccc2c1-c1ccccc1)c1cccc(Cl)c1", "activity change, negative = inhibition": "inconclusive: -52.6%"}, {"compound": "COc1cccc(-c2nc(CS(=O)(=O)CC(=O)NC3CC3)c(C)o2)c1", "activity change, negative = inhibition": "inconclusive: -52%"}, {"compound": "COc1cccc(N(C)C(=S)Oc2ccc3c(c2)CCCC3)n1", "activity change, negative = inhibition": "active: -65.4%"}, {"compound": "CCN(CC)c1ccc(/C=N/NC(=O)c2ccccn2)cc1", "activity change, negative = inhibition": "inconclusive: -40.9%"}, {"compound": "CCOc1cc(C(=O)OC(C)C(=O)Nc2ncc(Cl)cc2Cl)ccc1OCC(=O)N1CCOCC1", "note": "(stereo not drawn)", "activity change, negative = inhibition": "inactive: -1.17%"}, {"compound": "O=C(Nc1cccc(C(=O)OCc2cc(=O)n3c4c(sc3n2)CCCC4)c1)c1ccc(Cl)cc1", "activity change, negative = inhibition": "inconclusive: -41.4%"}, {"compound": "COc1ccc(-c2cc(OC(=O)c3ccccc3Cl)c3c(C)oc(C)c3c(=O)c2)cc1OC", "activity change, negative = inhibition": "inactive: -26.6%"}, {"compound": "CCCOc1ccccc1/C=C(\\C#N)C(=O)Nc1cccnc1", "activity change, negative = inhibition": "inconclusive: -40.2%"}, {"compound": "CCOc1ccccc1NC(=O)Cn1c(=O)n(-c2ccc(C)c(C)c2)c(=O)c2oc3ccccc3c21", "activity change, negative = inhibition": "inactive: 5.26%"}, {"compound": "O=C(COC(=O)/C=C/c1cccc([N+](=O)[O-])c1)NCc1ccc2c(c1)OCO2", "activity change, negative = inhibition": "inconclusive: -40.4%"}, {"compound": "COc1ccc(-c2noc(C3CCCN(C(=O)c4c(F)cccc4F)C3)n2)cc1OC", "note": "(stereo not drawn)", "activity change, negative = inhibition": "inconclusive: -59.2%"}, {"compound": "Clc1ccc(CN2CCc3nc(N4CCN(c5ccccn5)CC4)ncc3C2)cc1", "activity change, negative = inhibition": "inconclusive: -42.4%"}, {"compound": "O=C(OCC(=O)N1N=C(c2ccc(Cl)cc2)CC1c1ccco1)c1cncc(Br)c1", "note": "(stereo not drawn)", "activity change, negative = inhibition": "inconclusive: -58.9%"}, {"compound": "Cc1c2c(n3c(nc4ccccc43)c1C#N)N(CCN(C)C)CC2", "activity change, negative = inhibition": "inconclusive: -48.1%"}, {"compound": "N#Cc1ccsc1NC(=O)C1CCN(S(=O)(=O)c2cccs2)CC1", "activity change, negative = inhibition": "active: -69.7%"}, {"compound": "O=S(=O)(NC1c2cccc3cccc(c23)C1N1CCNCC1)c1ccc(Cl)cc1", "note": "(stereo not drawn)", "activity change, negative = inhibition": "inconclusive: -57%"}, {"compound": "CC(=O)c1ccc(N(CC(=O)NC2CCCC2)C(=O)c2csnn2)cc1", "activity change, negative = inhibition": "active: -82.1%"}, {"compound": "NC(=O)c1ccc(NC(=O)COC(=O)/C=C/c2cn(-c3ccccc3)nc2-c2cccnc2)cc1", "activity change, negative = inhibition": "inconclusive: -46.1%"}, {"compound": "Cc1cccc(OCC(=O)N2CCC(c3nc4ccccc4o3)CC2)c1C", "activity change, negative = inhibition": "inconclusive: -47.8%"}, {"compound": "C/C(=N\\NC(=S)NCc1ccccc1)c1cccc(Br)c1", "activity change, negative = inhibition": "inactive: -17.6%"}]}]}
